# Reference: publication PMC4336329 (PLoS ONE, 2015)
# The whole screen tested about 310,000 compounds, of which about 14,000 (4.5%) showed an effect of 50% or more. The effect is printed as a negative number. The list shows a part of the results.
# Target: human ether-à-go-go-related gene (hERG) potassium channel (human, UniProt Q12809)
# Experiment: primary screen, population patch clamp on CHO cells stably expressing hERG
# 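Note: peak tail current of the secondary pulse compared with the same well before compound.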
# human ether-à-go-go-related gene (hERG) potassium channel, sequence (Q12809 whole entry, looked up): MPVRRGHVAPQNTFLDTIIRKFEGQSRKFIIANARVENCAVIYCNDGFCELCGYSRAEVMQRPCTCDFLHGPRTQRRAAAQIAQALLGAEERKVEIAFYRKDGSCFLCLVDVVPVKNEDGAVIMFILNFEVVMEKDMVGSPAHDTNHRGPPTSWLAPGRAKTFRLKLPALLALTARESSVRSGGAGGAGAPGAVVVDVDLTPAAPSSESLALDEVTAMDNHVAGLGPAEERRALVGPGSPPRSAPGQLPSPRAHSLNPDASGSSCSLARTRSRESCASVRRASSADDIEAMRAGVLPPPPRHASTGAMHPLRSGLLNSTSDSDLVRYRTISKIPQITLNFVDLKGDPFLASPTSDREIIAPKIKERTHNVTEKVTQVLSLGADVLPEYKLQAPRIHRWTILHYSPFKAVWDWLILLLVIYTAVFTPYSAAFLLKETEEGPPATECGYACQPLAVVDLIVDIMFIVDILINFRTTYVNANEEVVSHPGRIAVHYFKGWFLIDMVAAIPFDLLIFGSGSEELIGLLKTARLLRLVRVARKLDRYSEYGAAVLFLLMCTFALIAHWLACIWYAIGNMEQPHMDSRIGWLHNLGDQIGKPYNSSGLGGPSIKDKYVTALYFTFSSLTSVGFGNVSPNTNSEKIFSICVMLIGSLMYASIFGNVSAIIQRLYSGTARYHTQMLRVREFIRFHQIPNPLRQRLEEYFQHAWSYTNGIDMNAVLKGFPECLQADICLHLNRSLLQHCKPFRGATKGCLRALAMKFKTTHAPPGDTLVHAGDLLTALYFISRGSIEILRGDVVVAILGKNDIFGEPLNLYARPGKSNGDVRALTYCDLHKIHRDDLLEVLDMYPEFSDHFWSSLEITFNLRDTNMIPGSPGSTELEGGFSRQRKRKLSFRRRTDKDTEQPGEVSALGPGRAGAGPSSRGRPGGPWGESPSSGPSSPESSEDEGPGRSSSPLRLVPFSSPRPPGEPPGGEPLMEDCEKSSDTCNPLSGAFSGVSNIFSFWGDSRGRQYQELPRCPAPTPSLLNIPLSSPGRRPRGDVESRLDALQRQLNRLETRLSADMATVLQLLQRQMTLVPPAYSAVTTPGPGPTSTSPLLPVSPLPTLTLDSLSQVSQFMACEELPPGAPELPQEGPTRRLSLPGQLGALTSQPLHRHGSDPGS
row,Structure (SMILES),"hERG current change (%, negative = inhibition) at 10uM"
1,FC(F)Oc1cccc(NC(=S)N2CCN(c3ccccn3)CC2)c1,8.99%
2,COc1ccc(/C=C/c2noc(-c3ccccc3OC(C)=O)n2)cc1,13.2%
3,O=C1NC(CCc2ccccc2)C(=O)N1CCOc1cccc(Br)c1 (centres unmarked),7.05%
4,Cc1cc(S(=O)(=O)N2CCc3ccccc3C2)ccc1F,7.2%
5,CCN(CC(=O)Nc1cc(Cl)ccc1C)C(=O)CN1C(=O)NC(CC)(c2ccccc2)C1=O (centres unmarked),-9.36%
6,COc1ccc(CCNCc2ccc(C)s2)cc1OC.Cl,-31.8%
7,Cc1ccc(N(CC(=O)Nc2ccccc2C(=O)NCc2ccco2)S(=O)(=O)c2ccccc2)cc1C,10.3%
8,Cn1c2ccccc2c2cc(/C=N/NC(=O)c3ccc(N)cc3)ccc21,-5.69%
9,O=C(O)CNS(=O)(=O)c1ccc(F)cc1,23.7%
10,CCOC(=O)c1ccc(NC(=O)N2CCN(C(=O)c3ccco3)CC2)cc1,-4.3%
11,COCC(=O)Nc1c(C(=O)Nc2ccc3c(c2)OCO3)oc2ccccc12,17.9%
12,Cc1[nH]c2nc3ccccc3n2c(=O)c1CCC(C)C,18%
13,CC(C)CNC(=O)CN1c2cccc3cccc(c23)S1(=O)=O,17.2%
14,Cc1ccc(N(C(=O)CNC(=O)c2ccco2)C(C(=O)NCC2CCCO2)c2ccccc2)cc1 (centres unmarked),5.83%
15,O=C1/C(=C/c2cccnc2)Oc2cc(OS(=O)(=O)c3ccc(F)cc3)ccc21,-3.08%
16,Cc1onc(-c2ccccc2)c1C(=O)NC(C)CCc1ccccc1 (centres unmarked),15.2%
17,COc1ccc(-c2ccc3oc(-c4ccsc4)c(-c4ccc(OC)cc4)c3c2)cc1,7.39%
18,COC(=O)c1[nH]c2ccc(F)cc2c1NC(=O)Nc1ccc(OC)cc1,9.32%
19,Cc1ccc(-c2nn(CC(=O)NCc3ccco3)c(=O)c3ccccc23)cc1,18.4%
20,CCOC(=O)c1cc2c(C)n(-c3ccc(C)cc3)c(C)c2ccc1=O,-42.4%
21,Cc1noc(C)c1CN1C(=O)c2cccc([N+](=O)[O-])c2C1=O,23.2%
22,Cc1ccc(C)c(S(=O)(=O)N2CCN(C(=O)/C=C/c3ccco3)CC2)c1,-35.7%

row,Structure (SMILES),"hERG current change (%, negative = inhibition) at 10uM"
1,CNc1c([N+](=O)[O-])cnn1-c1ccc(Cl)cc1Cl,-12.9%
2,CNC(=O)c1ccsc1NC(=O)CS(=O)(=O)c1ccc(Cl)cc1,-38.6%
3,O=C(CSc1nnc(COc2ccc(Cl)cc2)o1)N1CCCCC1,-35.4%
4,Cc1nn(-c2ccccc2)c(NC(=O)c2cccs2)c(-c2ccc(Cl)cc2)c1=O,12.7%
5,CCCCOC(=O)c1ccc(NC(C)=O)cc1,-11.2%
6,COc1ccc(-n2c(COc3ccccc3)nnc2SCc2ccc(C#N)cc2)cc1,-39.4%
7,O=c1ccn([C@H]2C[C@H](O)[C@@H](CO)O2)c(=O)[nH]1,-6.1%
8,Cc1cccc(C)c1NC(=O)CCCSc1nnc(-c2ccco2)o1,-24.5%
9,CCOC(=O)C1=C(C)NC(C)=C(C(=O)OCC)C1/C=C/c1ccccc1OC,-2.55%
10,CCCC1CC(C(=O)Nc2ccccc2)C(=O)O1 (centres unmarked),14.2%
11,Cc1ccc(Cl)cc1N1CCN(C(=O)C(C)n2ncn3cccc3c2=O)CC1 (centres unmarked),-11.5%
12,C=CCn1c(-c2cccc(OCC)c2)n[nH]c1=S,8.03%
13,CC(=O)c1sc2nc(SCC(=O)NCCc3ccccc3)[nH]c(=O)c2c1C,10.5%
14,COc1ccc2cc(C(c3nnnn3Cc3ccccc3)N3CCCCCC3)c(=O)[nH]c2c1 (centres unmarked),-17.6%
15,CCOC(=O)c1coc(CNC(=O)c2c(C)oc3c2CCCC3)c1,-7.01%
16,Cc1ccc(CN2CCN(CC(=O)N/N=C/c3c[nH]c4ccccc34)CC2)cc1,-36.3%
17,CCOC(=O)C1CCN(C2CCN(C(=O)c3oc4c(F)cccc4c3C)CC2)CC1,-71.1%
18,COc1ccccc1C1CC(=O)Nc2cc(C)c(C)cc21 (centres unmarked),14%
19,COc1ccc(NC(=O)C(NC(=O)CC2NC(=O)NC2=O)c2ccccc2)cc1 (centres unmarked),-2.49%
20,COc1ccc(CNC(=O)C2CCN(S(=O)(=O)c3ccc(Br)s3)CC2)cc1,-3.03%
21,CCOc1cc(NC(=S)NCCOC)c(OCC)cc1NC(=O)c1ccco1,1.36%
22,COC(=O)c1[nH]c2ccccc2c1NC(=O)CN1CCN(c2cccc(OC)c2)C(C)C1 (centres unmarked),-7.52%
